In all, about 360,000 compounds went through this assay and about 740 (0.21%) were called active. The shares of active, inactive and inconclusive entries below differ from those in the screen. The call rests on the fitted dose curve; in most records, active means well fitted inhibition curve with a large enough effect; inconclusive means small, poorly fitted or top-dose-only effect; inactive means no such curve, though single readings can be large or run the other way. Potencies of inconclusive entries are left out as doubtful fits.
What follows are compounds tested on Plasmodium falciparum AMA1 (3D7) - RON2 peptide interaction (assay: qHTS for Inhibitors of AMA1-RON; Towards Development of Antimalarial Drug Lead: Primary Screen). Conditions: AlphaScreen AMA1-biotinylated RON2 peptide binding; activity change, negative = inhibition: at 58.2 µM (top of the series) unless noted.
Method in brief: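 AMA1 (3D7) with his tag at 25 nM final met compounds first, then biotinylated RON2 peptide at 25 nM; detection used donor plus acceptor beads, 10 µg/mL apiece, read by AlphaScreen after 30 min at room temperature.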
Further: nearly all actives have a fitted effect of over 45% in size.
Potency means the concentration at half of the fitted maximal effect; tags describe the fitted curve by direction and shape.
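Wherever activity change, negative = inhibition is given: 0% = vehicle wells and -100% = peptide control.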

Which Potency does the source give for Cc1ccc2nc(-c3ccc(NC(=O)CNC4CC4)cc3)sc2c1 here?
The Potency was inconclusive [inhibitor, single point].

For COc1ccc(N2CCN(CC(=O)Nc3ccccc3C(=O)NC(C)c3ccccc3)CC2)cc1 (configuration not stated), which Potency is on record?
Its Potency is inconclusive [inhibitor, partial curve].

For COc1ccc(-c2nc(CS(=O)CC(=O)NCc3ccco3)c(C)o2)cc1 (configuration not stated), which “activity change, negative = inhibition” value is on record?
The value was inactive: -4.38%.

Cc1nn(Cc2ccc(F)cc2)c2sc(C(=O)Nc3ccc(N4CCOCC4)cc3N3CCOCC3)cc12 was tested. Which Potency did it give?
Its Potency is inconclusive [inhibitor, single point].

With O=C(CSc1ccc(-c2ccccn2)nn1)NCc1ccccc1 as the compound, how does the Potency read?
Its Potency is inconclusive [inhibitor, single point].

How did the “activity change, negative = inhibition” value turn out when CN(c1ccccc1)S(=O)(=O)c1cccc(NC(=O)c2cc(=O)c3ccccc3o2)c1 was run?
The value was inactive: -21.2%.

Which Potency does the source give for O=C(CSc1ccccn1)Nc1cccc([N+](=O)[O-])c1 here?
The Potency was inconclusive [inhibitor, partial curve].

Which Potency does the source give for COc1cccc(O)c1CN1CCCC(C(=O)c2cccc(C(F)(F)F)c2)C1 (configuration not stated) here?
Its Potency is inconclusive [inhibitor, single point].

With CCCNC(=O)COc1coc(CN2CCN(C(=O)c3ccco3)CC2)cc1=O as the compound, how does the “activity change, negative = inhibition” value read?
The value was inactive: 18.7%.

With Nc1nc(-c2ccccc2)c(N=Nc2cccc3ccccc23)s1 as the compound, how does the Potency read?
Its Potency is active: 15.8 µM.

For CCOc1ccc(S(=O)(=O)Nc2cc(SCC(=O)O)c(O)c3ccccc23)cc1, which Potency is on record?
The Potency was inconclusive [inhibitor, partial curve].

Which “activity change, negative = inhibition” value does the source give for Cc1ccc(S(=O)(=O)N2CCN(C(=O)c3cc4c(C)nn(-c5ccccc5C)c4s3)CC2)cc1 here?
Its value is inactive: -7.66%.

How did the Potency turn out when O=C(OCC(=O)N1CCN(c2ccccc2)CC1)c1ccc(Cl)nc1 was run?
The Potency was inconclusive [inhibitor, partial curve, poor fit].

CCN(CC(=O)Nc1ccc(OC)cc1)C(=O)Cc1ccsc1 was tested. Which “activity change, negative = inhibition” value did it give?
Its value is inactive: 5.3%.

With N#C/C(=C\c1ccc(-c2cccc([N+](=O)[O-])c2)o1)C(=O)N1CCOCC1 as the compound, how does the Potency read?
The Potency was inconclusive [inhibitor, partial curve].

Which Potency does the source give for COc1cc2c(cc1OC)CN(C(=O)Cn1ccccc1=O)CC2 here?
Its Potency is inconclusive [inhibitor, partial curve].

For Cc1cc(-n2c(SCC(=O)NCCC3=CCCCC3)nc3n[nH]c(C)c3c2=N)ccc1Cl, which “activity change, negative = inhibition” value is on record?
The value was inactive: -8.7%.

For CC1(C)CC(=O)C=C(c2ccc(Oc3ccccc3)cc2)C1=O, which Potency is on record?
The Potency was inconclusive [inhibitor, partial curve].

With CCC(CO)Oc1cc(NCc2ccc(Cl)cc2Cl)c2ncn(C(C)C)c2c1 (configuration not stated) as the compound, how does the Potency read?
The Potency was inconclusive [inhibitor, single point].

How did the Potency turn out when C=CCNc1cc(N2CCCC2)ccc1[N+](=O)[O-] was run?
Its Potency is inconclusive [inhibitor, full curve].

How did the Potency turn out when CC(=O)Nc1cc(-c2ccccc2N(C)C)cn2c(-c3ccccc3)cnc12 was run?
Its Potency is inconclusive [inhibitor, partial curve].

How did the Potency turn out when O=C1/C(=C\c2ccc(O)c(O)c2)SC(=S)N1Cc1ccccc1 was run?
The Potency was inconclusive [inhibitor, partial curve].

COc1ccc(N2CCN(C(=O)c3ccc(COc4ccc5c(C)cc(=O)oc5c4)cc3)CC2)cc1 was tested. Which Potency did it give?
Its Potency is inconclusive [inhibitor, full curve, poor fit].

ON1C2CCCCC2N(O)C1c1ccccc1F (configuration not stated) was tested. Which Potency did it give?
The Potency was inconclusive [inhibitor, single point].

For Oc1ccc(-c2cnc3ccccc3n2)cc1, which Potency is on record?
The Potency was inconclusive [inhibitor, full curve, poor fit].

With CCCc1c(-c2ccc(Cl)cc2)ncn1Cc1ccccc1OC as the compound, how does the Potency read?
Its Potency is inconclusive [inhibitor, partial curve].

CCc1nc2ccc(C(=O)Nc3ccc(OC)c(OC)c3)cn2c1N(C)Cc1ccc(OC)cc1 was tested. Which Potency did it give?
Its Potency is inconclusive [inhibitor, partial curve].

For O=C(/C=C/c1ccncc1)c1ccc(NC(=O)c2ccccc2F)cc1, which Potency is on record?
Its Potency is inconclusive [inhibitor, partial curve].

For Fc1cccc(NCCc2c[nH]c3ccccc23)n1, which Potency is on record?
The Potency was inconclusive [inhibitor, single point].

With COc1ccc(N2CCN(C(=O)C3CCCN(S(=O)(=O)c4ccc5c(c4)oc(=O)n5C)C3)CC2)cc1 (configuration not stated) as the compound, how does the “activity change, negative = inhibition” value read?
The value was inactive: 2%.

For COc1ccc(C(=O)NC2CCCc3c2cnn3-c2ccccc2F)cc1OC (configuration not stated), which Potency is on record?
Its Potency is inconclusive [inhibitor, single point].

How did the Potency turn out when COc1ccc(C(=O)NCC(c2cccs2)N2CCc3ccccc32)cc1OC (configuration not stated) was run?
The Potency was inconclusive [inhibitor, single point].

O=C1Nc2ccccc2/C1=C\c1cccn1-c1ccc(OC(F)(F)F)cc1 was tested. Which Potency did it give?
The Potency was inconclusive [inhibitor, partial curve].

For S=C(c1ccc(-c2cccc(Cl)c2)o1)N1CCOCC1, which Potency is on record?
The Potency was inconclusive [inhibitor, partial curve].

Which Potency does the source give for O=C(O)c1nc(NCCc2ccccc2)ncc1Cl here?
The Potency was inconclusive [inhibitor, single point].

With Clc1ccccc1-c1nc2ccccc2[nH]1 as the compound, how does the “activity change, negative = inhibition” value read?
The value was inactive: 0.64%.

For Nc1nnc2c(n1)CCCC2, which “activity change, negative = inhibition” value is on record?
The value was inactive: 44.8%.

With CCN(CC)c1ccc(/C=N/Nc2cccc(C)c2)c(O)c1 as the compound, how does the Potency read?
The Potency was inconclusive [inhibitor, single point].

For CCCOP(=O)(c1ccc(N(C)C)cc1)C(Nc1ccccc1)c1ccc(C)cc1 (configuration not stated), which Potency is on record?
Its Potency is inconclusive [inhibitor, single point].

CSCCC(NC(=O)OC(C)(C)C)C(=O)Oc1ccc2c(=O)c(-c3ccc4c(c3)OCCO4)coc2c1 (configuration not stated) was tested. Which Potency did it give?
Its Potency is inconclusive [inhibitor, full curve, poor fit].

With O=C(Nc1ccc(S(=O)(=O)Nc2nccs2)cc1)c1ccc(=O)[nH]c1 as the compound, how does the Potency read?
The Potency was inconclusive [inhibitor, partial curve, poor fit].

How did the Potency turn out when O=C(NC(=S)Nc1ccc(N2CCCCC2)cc1)c1cccs1 was run?
Its Potency is inconclusive [inhibitor, partial curve].

Reference: PubChem BioAssay AID720542 (National Center for Advancing Translational Sciences (NCATS), 2013)
